Assay results as given in PubChem BioAssay AID1671193 (National Center for Advancing Translational Sciences (NCATS), 2021).
Where “and” joins values, the source holds several entries; their conditions need not be identical. Identical values can stand only once. About 180 (0.12%) of roughly 150,000 compounds were called active. The shares of active, inactive and inconclusive entries below differ from those in the screen. The call rests on the fitted dose curve; in most records, active means well fitted cell-killing curve with a large enough effect; inconclusive means small, poorly fitted or top-dose-only effect, or effect the other way; inactive means flat fitted curve, though single readings scatter. A potency beside an inconclusive call is a rough fit, not a confirmed value.

assay: GF-AFC viability counterscreen for inhibitors of alpha-synuclein gene (SNCA) expression; conditions: HEK-293-SNCA-luc viability, GF-AFC fluorescence, 24 h; activity change, negative = cytotoxicity: at 57.1 µM (top of the series) unless noted; further: nearly all actives have a fitted effect of over 30% in size;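 on activity change, negative = cytotoxicity: 0% = DMSO-treated cells and -100% = medium-only wells without cells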
Summary of the method: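 HEK-293-SNCA-luc cells (1500/well) plated 24 h, then exposed 24 h to a dilution series; GF-AFC added 30 min at 37C, fluorescence 405/540 nm; normalised to medium-only and DMSO wells, Hill fit.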
Potency means the concentration at half of the fitted maximal effect; tags describe the fitted curve by direction and shape.

Question: With `Cc1nc(-c2ccccc2)n(CC(=O)Nc2ccccc2)c(=O)c1CCO` as the molecule, how does the “activity change, negative = cytotoxicity” value read?
Answer: inactive: -12.6%

Question: For `CCOC(=O)N1CCC(CN(Cc2ccc(Cl)cc2)Cc2ccc([N+](=O)[O-])s2)C1` (stereo unspecified), which Potency is on record?
Answer: inconclusive: 16.8 µM [cytotoxic, partial curve, poor fit]

Question: Which Potency does the source give for `COc1ccc(-c2nc(C(C)C)nc3c2CCN(C(=O)c2cccc(Cl)c2)CC3)cc1` here?
Answer: inconclusive: 39.8 µM [cytotoxic, single point]

Question: For `COc1ccc2[nH]c(C[C@@H]3C[C@@H](C(C)C)[C@H](CN(Cc4ccccn4)Cc4ccccn4)C=C3C)nc2n1`, which Potency is on record?
Answer: inconclusive: 12.6 µM [cytotoxic, partial curve]

Question: Which Potency does the source give for `C=CC(=O)Nc1cccc(Oc2nc(Nc3ccc(N4CCN(C)CC4)cc3)ncc2Cl)c1` here?
Answer: inconclusive: 681 nM [cytotoxic, full curve] and active: 2.99 µM

Question: With `COc1ccc2c(c1)c1c(c(=O)n(-c3ccccc3C)c(=O)n1CC(=O)NCc1ccc(C)cc1)n2C` as the molecule, how does the Potency read?
Answer: inconclusive: 2.82 µM [cytotoxic, single point]

Question: For `O=c1c(-c2cc(F)cc(F)c2)nc2cnc(N3CCNCC3)nc2n1-c1ccccc1`, which Potency is on record?
Answer: inconclusive: 15.8 µM [rising, partial curve, poor fit]

Question: For `COc1ccccc1-c1nc(NC2CC2)c2ccccc2n1`, which Potency is on record?
Answer: inconclusive: 15.8 µM [cytotoxic, partial curve, poor fit]

Question: With `C=C1C(=O)OC2/C=C(\CO)CC/C=C(\C=O)CC(OC(=O)CC(C)C)C12` (stereo unspecified) as the molecule, how does the Potency read?
Answer: inconclusive: 18.5 µM [cytotoxic, single point]

Question: For `O=C(NC1CC1)c1cc(-c2ccccc2F)cc2c1OCCN2Cc1cccnc1`, which Potency is on record?
Answer: inconclusive: 3.16 µM [cytotoxic, full curve]

Question: With `CNCC(=O)N1CCCC(c2nnc(CN3CCOCC3)n2C)C1` (stereo unspecified) as the molecule, how does the Potency read?
Answer: inconclusive: 1 µM [rising, full curve, poor fit]

Question: With `O=C(c1cc(F)ccc1F)N1CCCC2(C1)NC(=O)N(Cc1cccc(Cl)c1)C2=O` (stereo unspecified) as the molecule, how does the “activity change, negative = cytotoxicity” value read?
Answer: inactive: 6.67%

Question: Which activity change, negative = cytotoxicity does the source give for `CCNC(=O)N[C@H]1C[C@@H](Cc2cc(CC(C)C)on2)C1(C)C` here?
Answer: inconclusive: -17.8% [at 87.6 µM]

Question: For `Cc1c(CN2CCCC(CNC(=O)c3cccc4ccccc34)C2)[nH]c2ccccc12` (stereo unspecified), which Potency is on record?
Answer: inconclusive: 31.6 µM [cytotoxic, partial curve]

Question: With `COc1ccc(-c2cc(C)no2)cc1S(=O)(=O)N1CCCC(C)C1` (stereo unspecified) as the molecule, how does the Potency read?
Answer: inconclusive: 22.4 µM [cytotoxic, single point]

Question: For `CCOc1ccc(/C=C/C(=O)Nc2sc3c(c2C(=O)OC)CCCC3)cc1`, which Potency is on record?
Answer: inconclusive: 15.8 µM [rising, partial curve]
